Consider 110 sequences from the supplement of paper PMC3334620.

Over roughly 33,000 sequences, “E-score (-0.5 to 0.5)” has its median near -0.054; the highest 2% begin near 0.35. Some of the results follow.

In this test the target is T1, Stb5 (UniProt P38699).
T1 sequence: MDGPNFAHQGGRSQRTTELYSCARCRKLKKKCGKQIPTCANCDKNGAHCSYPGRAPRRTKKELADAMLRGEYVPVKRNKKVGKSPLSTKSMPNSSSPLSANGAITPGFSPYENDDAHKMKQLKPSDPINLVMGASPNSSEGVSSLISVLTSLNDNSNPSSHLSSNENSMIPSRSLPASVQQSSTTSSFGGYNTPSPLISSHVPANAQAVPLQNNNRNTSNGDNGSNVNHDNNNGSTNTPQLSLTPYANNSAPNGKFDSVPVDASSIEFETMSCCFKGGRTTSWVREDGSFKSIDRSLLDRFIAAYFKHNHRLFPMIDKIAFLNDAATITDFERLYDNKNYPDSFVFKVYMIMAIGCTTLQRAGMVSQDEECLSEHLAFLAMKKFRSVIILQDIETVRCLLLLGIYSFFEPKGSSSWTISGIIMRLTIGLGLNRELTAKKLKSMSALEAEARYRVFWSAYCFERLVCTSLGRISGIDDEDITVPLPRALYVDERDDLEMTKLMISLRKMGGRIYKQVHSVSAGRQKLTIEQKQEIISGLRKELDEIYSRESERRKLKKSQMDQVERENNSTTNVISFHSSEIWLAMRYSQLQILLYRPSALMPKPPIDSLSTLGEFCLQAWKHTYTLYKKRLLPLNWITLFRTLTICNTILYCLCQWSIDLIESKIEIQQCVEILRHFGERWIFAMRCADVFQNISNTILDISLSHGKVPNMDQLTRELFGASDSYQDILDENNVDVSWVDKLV
Put plainly: PBM E-score (8-mer binding enrichment) (E-score (-0.5 to 0.5)); higher = stronger / more preferred TF binding; most listed sequences are background and not binding sites. Conditions: protein concentration: 200 nM; construct: GST-full length. How it is done: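 Universal 'all 10-mer' protein binding microarrays (Agilent AMADID 015681) probed with GST-tagged S. cerevisiae TFs (full-length or DBD) made by in vitro transcription/translation (PURExpress), about 100-200 nM. Bound TF was detected with fluorescent anti-GST. Each ungapped 8-mer (which stands for itself and its reverse complement) is scored by the PBM enrichment score (E-score), a modified Wilcoxon-Mann-Whitney statistic from -0.5 to +0.5, computed with the Universal PBM Analysis Suite. Scale: above 0.35 generally sequence-specific binding.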
Regarding GTATAAGA, the “PBM E-score” value came to 0.0123. As for GACCCTCA, the “PBM E-score” value is -0.169. Next, ATATACGC: 0.156. As for CGAAGTCC, the “PBM E-score” value came out at 0.238. Next, TGCCCGCA: 0.0902; CGGAGACG: 0.166; CGCCACTA: 0.0725. Next, CGAACTGA: -0.184; GAACTCCA: -0.201. The same measure for TCCACAGA: -0.209. Turning to CGCCTAAG, the “PBM E-score” value was determined as 0.136. Next, ATCGTGCG: 0.0143; CCAAGTCG: -0.105; GCAGATAA: -0.077. The same measure for AATTATGA: 0.168; for CAGAGAAG: -0.183.

Turning to GGAATAGA, the “PBM E-score” value was -0.0516. The same measure for AAGGGTAT: 0.0975; for GAAGTTGA: -0.0652; for CGACCGAA: 0.122.

As to AGATCTAA, the “PBM E-score” value was -0.128. The same measure for AGAGTGCG: -0.00597. As to GCCCGTAA, the “PBM E-score” value is 0.165. Next, ACGAGAGT: -0.125; CAATCGAC: -0.198. Next, AGGTTTCC: -0.302; AAAGCTGA: -0.0776. Next, AGCTTAGC: -0.0499; GTTATTTA: 0.14. Regarding ATGAATAG, the “PBM E-score” value worked out at 0.0375. Next, AGAGGAAC: -0.176; CTCCTCCA: -0.19; GTGAAAAA: 0.0826. The same measure for CCCTTAGG: -0.26; for AGCGTTAG: 0.0119; for ATGAACAG: -0.141.

In the case of ACTGACAG, the “PBM E-score” value is -0.138.

For CAGGCGTC, the “PBM E-score” value is -0.0392. The same measure for CCATAATC: -0.146. Consider AGGCTGAC, for which the “PBM E-score” value was -0.287.

On to ATGCCGTG, for which the “PBM E-score” value worked out at 0.144. Next, AAGCTAGC: -0.0562.

With ATGCCGAC, the “PBM E-score” value came out at 0.386. In the case of GCCGCCGC, the “PBM E-score” value came out at 0.391.

On to ACCTCTCA, for which the “PBM E-score” value is -0.171.

Regarding ATGGGGAC, the “PBM E-score” value was -0.0962.

CTACTAAC: the “PBM E-score” value was -0.105. The same measure for CAAAGACG: 0.0984. Consider AACGCCAC, for which the “PBM E-score” value is -0.0588. The same measure for CATGATTA: -0.086; for ACTACCCG: 0.0662; for AAAGCAGC: -0.0282.

On to CTCATCGA, for which the “PBM E-score” value was -0.281.

Take CAAGACAG: the “PBM E-score” value was -0.264. CAGCAATG: the “PBM E-score” value was -0.255. The same measure for AGACGGTG: 0.296.

CTACCTTC: the “PBM E-score” value was -0.072. Regarding ACGAGTTC, the “PBM E-score” value was -0.121. Turning to CCCAGCGA, the “PBM E-score” value is -0.285. Consider ACACAGAT, for which the “PBM E-score” value was -0.266. Next, GGCCAACA: -0.0714; GCGGATCC: 0.0794. As for CCACAAGG, the “PBM E-score” value was -0.161. Next, AATTCATG: -0.117.

As to CCACTAGC, the “PBM E-score” value was -0.114.

Consider CAATGCCC, for which the “PBM E-score” value worked out at 0.225. Next, CACCGATC: 0.359; AGGTGAAA: 0.0237. Consider ACTCACAA, for which the “PBM E-score” value is -0.209. Next, GAACGCGC: 0.0925; AGAGTGGA: -0.136; GCGACGAC: -0.0667. Regarding GCCGTTCA, the “PBM E-score” value came to 0.237. The same measure for GAGACCTA: -0.0713; for CCATAGAG: -0.189; for ACCACAAT: -0.132. With TTCACAAA, the “PBM E-score” value is -0.00748. Turning to CAGGGATA, the “PBM E-score” value was -0.228.

CAGACGTA: the “PBM E-score” value is -0.177. The same measure for GACCAAGA: -0.11; for AAACCGCC: 0.302; for GCTCATCC: -0.182. Next, CCCAGCTA: -0.236; ACGCCCCC: -0.0024. The same measure for CGCACGTA: 0.098. In the case of TTACCTAA, the “PBM E-score” value was -0.0673. Next, GGGCGTAC: 0.14; GAATATTA: 0.104; CCAATGCG: -0.208. The same measure for ACCATTTA: -0.0471; for CTGCGGTA: 0.254.

On to GTTGAAGA, for which the “PBM E-score” value is -0.158. AGACGACA: the “PBM E-score” value is -0.0617. The same measure for ATATCTGA: -0.135; for ACCATAAG: -0.0546. The same measure for GAGATTGA: -0.141. The same measure for CATTCCCA: -0.187.

Consider ACCTGGAA, for which the “PBM E-score” value is -0.28. Take ATGCCGCA: the “PBM E-score” value was found to be 0.25. Next, CTAGCTCC: 0.179; AGGTCCGA: 0.412. The same measure for ACTCTTCT: -0.167; for GAAGAGGA: -0.123; for AATGTCTC: 0.00508.

For the sequence ATTCTAAG, the “PBM E-score” value was determined as 0.0878. Next, CCCTCCCC: 0.0568; AACAATGA: 0.0501. Next, CCACCCCG: 0.266. The same measure for CCTCAAAC: 0.0209; for CAATGCGA: -0.15.
